Measurements: the supplement of paper PMC4604168 (melanoma cell lines)
Some of the results follow. Repeats are few or missing, and single values can be far off.

Each molecule was assayed on WM1745 (assay: cell count relative to DMSO control; melanoma cells; higher = more viable cells). Conditions: library dose: low library concentration; 72 h.
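Note: cell number obtained by counting DAPI-stained nuclei in high-throughput microscope images with image analysis software, screen run in 1,536-well plates.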

Row | SMILES | cell count
1 | CN(c1ncccc1CNc1nc(Nc2ccc3c(c2)CC(=O)N3)ncc1C(F)(F)F)S(C)(=O)=O + O=C(Nc1cccc(Cl)c1)Nc1ncc(CCNc2ncnc3ccsc23)s1 [SNS314] (first compound 0.08 µM, partner dose 0.0008 µM) | 80.7%
2 | CN(c1ncccc1CNc1nc(Nc2ccc3c(c2)CC(=O)N3)ncc1C(F)(F)F)S(C)(=O)=O + O=C(CCCCCCC(=O)Nc1ccccc1)NO [vorinostat] (first compound 0.08 µM, partner dose 0.08 µM) | 108%
3 | NC1(c2ccc(-c3nc4ccn5c(=O)[nH]nc5c4cc3-c3ccccc3)cc2)CCC1 + CS(=O)(=O)CCNCc1ccc(-c2ccc3ncnc(Nc4ccc(OCc5cccc(F)c5)c(Cl)c4)c3c2)o1 [lapatinib] (first compound 0.4 µM, partner dose 0.8 µM) | 80%
4 | C=C(c1ccc(C(=O)O)cc1)c1cc2c(cc1C)C(C)(C)CCC2(C)C [Bexarotene] + c1cc(-c2cnn3cc(-c4ccc(OCCN5CCCCC5)cc4)cnc23)ccn1 [Dorsomorphin] (first compound 2 µM, partner dose 0.4 µM) | 79.5%
5 | CN(c1ncccc1CNc1nc(Nc2ccc3c(c2)CC(=O)N3)ncc1C(F)(F)F)S(C)(=O)=O + CC(C)C[C@H](NC(=O)[C@H](Cc1ccccc1)NC(=O)c1cnccn1)B(O)O [Bortezomib] (first compound 0.08 µM, partner dose 0.001 µM) | 66.2%
6 | NC1(c2ccc(-c3nc4ccn5c(=O)[nH]nc5c4cc3-c3ccccc3)cc2)CCC1 + COc1cc(Nc2ncc(F)c(Nc3ccc4c(n3)NC(=O)C(C)(C)O4)n2)cc(OC)c1OC [Tamatinib] (first compound 0.4 µM, partner dose 0.4 µM) | 69.1%
7 | C=C(c1ccc(C(=O)O)cc1)c1cc2c(cc1C)C(C)(C)CCC2(C)C [Bexarotene] + OCc1c[nH]c2ccccc12 [Indole-3-carbinol] (first compound 2 µM, partner dose 0.8 µM) | 107%
8 | C=C(c1ccc(C(=O)O)cc1)c1cc2c(cc1C)C(C)(C)CCC2(C)C [Bexarotene] + N#Cc1c(O)c2c(-c3ccc(-c4ccccc4O)cc3)csc2[nH]c1=O [A769662] (first compound 2 µM, partner dose 2 µM) | 96.3%
9 | C=C(c1ccc(C(=O)O)cc1)c1cc2c(cc1C)C(C)(C)CCC2(C)C [Bexarotene] + CCc1ccc(CCOc2ccc(CC3SC(=O)NC3=O)cc2)nc1 [pioglitazone] (first compound 2 µM, partner dose 2 µM) | 100%
10 | NC1(c2ccc(-c3nc4ccn5c(=O)[nH]nc5c4cc3-c3ccccc3)cc2)CCC1 + NCC(=O)Nc1ccc(-n2nc(C(F)(F)F)cc2-c2ccc3c(ccc4ccccc43)c2)cc1 [OSU03012] (first compound 0.4 µM, partner dose 1 µM) | 88.6%
11 | NC1(c2ccc(-c3nc4ccn5c(=O)[nH]nc5c4cc3-c3ccccc3)cc2)CCC1 + c1cc(-c2cnn3cc(-c4ccc(OCCN5CCCCC5)cc4)cnc23)ccn1 [Dorsomorphin] (first compound 0.4 µM, partner dose 0.4 µM) | 89.4%
12 | NC1(c2ccc(-c3nc4ccn5c(=O)[nH]nc5c4cc3-c3ccccc3)cc2)CCC1 + C[C@]1(c2nc3c(C(N)=O)cccc3[nH]2)CCCN1 [Veliparib] (first compound 0.4 µM, partner dose 1.4 µM) | 89.3%
13 | C=C(c1ccc(C(=O)O)cc1)c1cc2c(cc1C)C(C)(C)CCC2(C)C [Bexarotene] + CCCCCCCCCCCC1=C(O)C(=O)C=C(O)C1=O [Embelin] (first compound 2 µM, partner dose 1.2 µM) | 90.7%
14 | CS(=O)(=O)c1ccc(C(=O)Nc2ccc(Cl)c(-c3ccccn3)c2)c(Cl)c1 [vismodegib] + COc1ccc(Cl)c(Nc2nc3ccccc3nc2NS(=O)(=O)c2cccc(NC(=O)C(C)(C)N)c2)c1 [XL147] (first compound 1 µM, partner dose 0.8 µM) | 103%
15 | NC1(c2ccc(-c3nc4ccn5c(=O)[nH]nc5c4cc3-c3ccccc3)cc2)CCC1 + CC1(C)NC(=O)N(c2ccc([N+](=O)[O-])c(C(F)(F)F)c2)C1=O [nilutamide] (first compound 0.4 µM, partner dose 1 µM) | 95.8%
16 | CS(=O)(=O)c1ccc(C(=O)Nc2ccc(Cl)c(-c3ccccn3)c2)c(Cl)c1 [vismodegib] + COc1cc2ncnc(Nc3ccc(Oc4ccccc4)cc3)c2cc1OC [SrcI1] (first compound 1 µM, partner dose 2 µM) | 94.9%
17 | CS(=O)(=O)c1ccc(C(=O)Nc2ccc(Cl)c(-c3ccccn3)c2)c(Cl)c1 [vismodegib] + CN(C)S(=O)(=O)c1ccc2c(c1)/C(=C/c1cc3c([nH]1)CCCC3)C(=O)N2 [SU6656] (first compound 1 µM, partner dose 0.4 µM) | 89.4%
18 | CN(c1ncccc1CNc1nc(Nc2ccc3c(c2)CC(=O)N3)ncc1C(F)(F)F)S(C)(=O)=O + O=C1NC(=O)/C(=C/c2ccc(-c3ccc(F)cc3O)o2)S1 [AS252424] (first compound 0.08 µM, partner dose 1 µM) | 64.3%
19 | CN(c1ncccc1CNc1nc(Nc2ccc3c(c2)CC(=O)N3)ncc1C(F)(F)F)S(C)(=O)=O + Oc1cc(-c2nc(-c3ccccc3)[nH]c2-c2ccncc2)ccc1Cl [L779450] (first compound 0.08 µM, partner dose 0.2 µM) | 70.1%
20 | C=C(c1ccc(C(=O)O)cc1)c1cc2c(cc1C)C(C)(C)CCC2(C)C [Bexarotene] + Cn1c(Nc2ccc(C(F)(F)F)cc2)nc2cc(Oc3ccnc(-c4ncc(C(F)(F)F)[nH]4)c3)ccc21 [CHIR265] (first compound 2 µM, partner dose 0.08 µM) | 79.4%
21 | CCCS(=O)(=O)Nc1ccc(F)c(C(=O)c2c[nH]c3ncc(Cl)cc23)c1F + COc1ccc(Cl)c(Nc2nc3ccccc3nc2NS(=O)(=O)c2cccc(NC(=O)C(C)(C)N)c2)c1 [XL147] (first compound 0.08 µM, partner dose 0.8 µM) | 90.8%
22 | CCCS(=O)(=O)Nc1ccc(F)c(C(=O)c2c[nH]c3ncc(Cl)cc23)c1F + CN(C)S(=O)(=O)c1ccc2c(c1)/C(=C/c1cc3c([nH]1)CCCC3)C(=O)N2 [SU6656] (first compound 0.08 µM, partner dose 0.4 µM) | 79%
23 | C=C(c1ccc(C(=O)O)cc1)c1cc2c(cc1C)C(C)(C)CCC2(C)C [Bexarotene] + COc1cc(Nc2ncc(F)c(Nc3ccc4c(n3)NC(=O)C(C)(C)O4)n2)cc(OC)c1OC [Tamatinib] (first compound 2 µM, partner dose 0.4 µM) | 72.9%
24 | CS(=O)(=O)c1ccc(C(=O)Nc2ccc(Cl)c(-c3ccccn3)c2)c(Cl)c1 [vismodegib] + CC(=O)O[C@@]12CO[C@@H]1C[C@H](O)[C@@]1(C)C(=O)[C@H](O)C3=C(C)[C@@H](OC(=O)[C@H](O)[C@@H](NC(=O)OC(C)(C)C)c4ccccc4)C[C@@](O)([C@@H](OC(=O)c4ccccc4)[C@H]21)C3(C)C [Docetaxel] (first compound 1 µM, partner dose 0.0001 µM) | 59.7%
